Changes are numbered by the printed parent chain. Names may count otherwise. These are yes or no findings as the source states them, for the method shown. Some binding calls cover weakened binding; strength is not graded here. For some of these results: Where a sequence is shown, tags or fusion partners need not be part of it.

Amino acid sequences for entries named in this document (tags omitted). Residues count along the entry.
UniProt A0A140LI88, residues 1808-1857: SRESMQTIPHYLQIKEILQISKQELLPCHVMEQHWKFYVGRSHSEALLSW

The values that follow come from article PMC9671922, “TOPOVIBL-REC114 interaction regulates meiotic DNA double-strand breaks” (Nature Communications, 2022).

Assay [1] has as its target T1, Strep-REC114^1–159 (mouse) (UniProt Q9CWH4).
T1 sequence: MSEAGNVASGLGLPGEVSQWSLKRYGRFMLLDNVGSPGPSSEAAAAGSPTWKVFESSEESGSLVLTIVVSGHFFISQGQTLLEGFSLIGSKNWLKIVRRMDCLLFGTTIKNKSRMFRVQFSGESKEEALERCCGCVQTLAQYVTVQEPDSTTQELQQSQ
As to the kind of experiment: SEC; supernatants of separately expressed Strep-REC114 1-159 and His-MBP-ANKRD31 1808-1857 mixed; complex purified by affinity chromatography and Superdex 200 gel filtration. (In general: Size exclusion chromatography separates by hydrodynamic size, large species first.)

Assay [2] deals with T2, Strep-REC114-MEI4^1–127 complex (mouse) (UniProt Q9CWH4+Q8BRM6).
T2 sequence 1: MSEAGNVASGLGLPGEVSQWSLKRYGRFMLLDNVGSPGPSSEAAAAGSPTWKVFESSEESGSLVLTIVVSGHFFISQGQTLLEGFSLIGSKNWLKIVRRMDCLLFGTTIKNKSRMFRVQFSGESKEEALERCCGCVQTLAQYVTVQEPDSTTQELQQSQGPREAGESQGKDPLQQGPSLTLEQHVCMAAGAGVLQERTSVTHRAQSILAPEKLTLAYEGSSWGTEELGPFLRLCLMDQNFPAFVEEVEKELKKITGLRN
T2 sequence 2: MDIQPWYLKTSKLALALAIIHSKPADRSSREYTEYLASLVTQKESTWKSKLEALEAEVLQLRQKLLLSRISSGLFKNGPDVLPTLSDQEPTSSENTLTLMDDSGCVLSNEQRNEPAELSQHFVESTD
In words: SEC; Superose 6 gel filtration of Strep-REC114-MEI4 1-127, TOPOVIBL 452-579 and their complex; both purified.

Assay [3] deals with T1, Strep-REC114^1–159 (mouse). As to the kind of experiment: condition: only REC114 1-159 previously bound to His-MBP-ANKRD31 1808-1857; pull-down; Strep-REC114 1-159, free or previously bound to His-MBP-ANKRD31 1808-1857, on Strep-Tactin XT resin with increasing amounts (1x, 2x, 4x) of His-TOPOVIBL 452-579; wash 100 mM Tris pH 8, 100 mM NaCl, 5 mM β-mercaptoethanol; elution with 50 mM D-biotin; both purified.

The target of assay [4] is T1, Strep-REC114^1–159 (mouse). In words: condition: only REC114 pre-saturated with ANKRD31 1808-1857; ITC; 25 °C; TOPOVIBL 452-579 injected into REC114 in the absence or presence of saturating amounts of ANKRD31 1808-1857; 20 mM Tris pH 8.0, 100 mM NaCl, 5% glycerol, 5 mM β-mercaptoethanol; both purified.
In assay [5] the target is T1, Strep-REC114^1–159 (mouse). As to the kind of experiment: pull-down; Strep-tagged REC114 held on Strep-Tactin XT resin; wash 100 mM Tris pH 8, 100 mM NaCl, 5 mM β-mercaptoethanol; elution with 50 mM D-biotin; SDS-PAGE, coomassie; both purified.
In assay [6] the target is T3, Strep-tagged full-length REC114 (mouse) (UniProt Q9CWH4).
T3 sequence: T2 sequence 1
The assay is described as above.

For assay [7], the target named is T4, SPO11β, full length (yeast two-hybrid fusion) (mouse) (UniProt Q9WTK8).
T4 sequence: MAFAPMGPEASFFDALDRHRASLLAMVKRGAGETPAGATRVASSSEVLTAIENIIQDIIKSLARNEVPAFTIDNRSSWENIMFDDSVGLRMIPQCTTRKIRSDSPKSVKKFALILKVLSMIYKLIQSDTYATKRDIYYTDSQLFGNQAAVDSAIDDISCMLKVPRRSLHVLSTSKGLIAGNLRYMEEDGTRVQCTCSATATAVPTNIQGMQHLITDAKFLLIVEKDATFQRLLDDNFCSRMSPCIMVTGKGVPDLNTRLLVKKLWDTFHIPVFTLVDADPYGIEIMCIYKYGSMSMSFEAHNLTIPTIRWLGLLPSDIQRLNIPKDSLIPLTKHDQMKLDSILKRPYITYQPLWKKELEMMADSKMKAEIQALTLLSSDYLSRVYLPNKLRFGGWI
As to the kind of experiment: two-hybrid; Gal4 DNA-binding domain (pAS2-derived) and activation domain (pGAD-derived) fusions, diploids of AH109 and Y187; growth on medium lacking leucine, tryptophane and histidine; 30 °C, 3 days.

For assay [8], the target named is T5, REC114, full length (yeast two-hybrid fusion) (mouse) (UniProt Q9CWH4).
T5 sequence: T2 sequence 1
Described as above.

The target in assay [9] is T5, REC114, full length (yeast two-hybrid fusion) (mouse). In words: two-hybrid; Gal4 DNA-binding domain (pAS2-derived) and activation domain (pGAD-derived) fusions, diploids of AH109 and Y187; growth on medium lacking leucine, tryptophane and histidine with 5 mM 3-amino-1,2,4-triazole; 30 °C, 3 days.
The target of assay [10] is T6, REC114 lacking the first 39 amino acids (40–259) (yeast two-hybrid fusion) (mouse) (UniProt Q9CWH4).
T6 sequence: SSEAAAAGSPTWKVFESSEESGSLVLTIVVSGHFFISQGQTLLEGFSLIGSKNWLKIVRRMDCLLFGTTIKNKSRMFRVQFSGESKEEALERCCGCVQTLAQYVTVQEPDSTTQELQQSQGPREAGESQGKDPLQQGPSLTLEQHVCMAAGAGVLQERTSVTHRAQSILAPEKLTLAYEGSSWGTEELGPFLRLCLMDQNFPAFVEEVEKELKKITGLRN
The assay is described as above.

In assay [11] the target is T3, Strep-tagged full-length REC114 (mouse). As to the kind of experiment: SEC; Superose 6 gel filtration; REC114 and MEI4 1-127 run as a preformed complex, how the two were brought together is not told.

As to “His-MBP-ANKRD31^1808–1857 (from UniProt A0A140LI88 1808-1857) (domain or fragment)”, in [1], the binding result was “binds”.

B1: 6xHis-TOPOVIBL C-terminal domain (CTD; 452–579) (domain or fragment, mouse, UniProt J3QMY9 452-579, looked up)
chain: SCDTEQHLTPEKNISAQNTKDQHKNIAQEFPEESIGQAENKRPKRGSPNHGREESRVLGSARDRSPPKSATRDRELTEVSLTARGSQTQAAHGRAQAAEAASPAGGLEDLWLQEVSNLSEWLNPGHRS
notes: Cloned in pProEXHTb; also called TOPOVIBL CTD; source: E. coli BL21Gold (DE3), purified (Ni-Chelating Sepharose, Superdex 200)
For B1, the binding entry is listed as “binds” in assay [2], “no binding” in assay [3] and “no binding” in [4].

B2: 6xHis-TOPOVIBL^452–579 L569R (domain or fragment, UniProt J3QMY9 452-579)
chain: B1 chain with L118R
With B2, in [5], the binding entry is given as “no binding”.

B3: 6xHis-TOPOVIBL^452–579 W572L (domain or fragment, UniProt J3QMY9 452-579)
chain: B1 chain with W121L
Turning to B3, the binding entry in assay [5] is “no binding”.

B4: 6xHis-TOPOVIBL^452–579 W562E (domain or fragment, UniProt J3QMY9 452-579)
chain: B1 chain with W111E
Take B4: the binding entry in [5] is “no binding”.

B5: 6xHis-TOPOVIBL^452–579 W562A (domain or fragment, UniProt J3QMY9 452-579)
chain: B1 chain with W111A
Regarding B5, the binding result in [5] is reported as “no binding”.

B6: 6xHis-TOPOVIBL^452–579 V566R (domain or fragment, UniProt J3QMY9 452-579)
chain: B1 chain with V115R
On to B6, for which the binding entry in [5] is given as “no binding”.

B7: 6xHis-SUMO-TOPOVIBL^1–385 (domain or fragment, UniProt J3QMY9 1-385)
chain: MERTALAVCEILRYLIIHWKCEAGTAKGTLLDGQLVISIEALRSKHLPDSLHCIITIASTRSVYGGLNFKKFLQEIQPALPRLSAKLALASEEGGRSQDASGIAPCQVTFEVDENSQSLMTDCLVIKHFLRKIIIVHHKLKFSFSVAVNGTLSAETFGAENEPTLRLDNGVTLVVGFQRYVSKPKLNWSEAHCSRIHPVLGHPAPLFIPDAKADTGLLGELTLTPAAALCPSPKGFSSQLCRISSVSIFLYGPLGLPLLSSDQDQPSTAVFRDTSYFIDWKKYNLFMVPNLDLNLDTQSVLPDVNYKAESPEGNQSQNMNAQGPALLLFLFVDFQSDVPVQQAKIWGLHTLLTAHLSAILSESRSTVQQSIQSAVDQVWQLYHHD
Turning to B7, the binding result in [6] was “no binding”.

B8: TOPOVIBL^1–550 (yeast two-hybrid fusion) (domain or fragment, UniProt J3QMY9 1-550)
chain: MERTALAVCEILRYLIIHWKCEAGTAKGTLLDGQLVISIEALRSKHLPDSLHCIITIASTRSVYGGLNFKKFLQEIQPALPRLSAKLALASEEGGRSQDASGIAPCQVTFEVDENSQSLMTDCLVIKHFLRKIIIVHHKLKFSFSVAVNGTLSAETFGAENEPTLRLDNGVTLVVGFQRYVSKPKLNWSEAHCSRIHPVLGHPAPLFIPDAKADTGLLGELTLTPAAALCPSPKGFSSQLCRISSVSIFLYGPLGLPLLSSDQDQPSTAVFRDTSYFIDWKKYNLFMVPNLDLNLDTQSVLPDVNYKAESPEGNQSQNMNAQGPALLLFLFVDFQSDVPVQQAKIWGLHTLLTAHLSAILSESRSTVQQSIQSAVDQVWQLYHHDAKTQQRLQASLSVAVNSIMSVLTGSTRSSFRKTCLQALEAADTQEFGVKLHRIFYDITQHQFLKHCSCDTEQHLTPEKNISAQNTKDQHKNIAQEFPEESIGQAENKRPKRGSPNHGREESRVLGSARDRSPPKSATRDRELTEVSLTARGSQTQAAHGRAQAAE
For the molecule B8, the binding result in assay [7] is “binds”; in assay [8], “no binding”.

B9: TOPOVIBL, full length (yeast two-hybrid fusion) (protein, UniProt J3QMY9 1-579)
chain: MERTALAVCEILRYLIIHWKCEAGTAKGTLLDGQLVISIEALRSKHLPDSLHCIITIASTRSVYGGLNFKKFLQEIQPALPRLSAKLALASEEGGRSQDASGIAPCQVTFEVDENSQSLMTDCLVIKHFLRKIIIVHHKLKFSFSVAVNGTLSAETFGAENEPTLRLDNGVTLVVGFQRYVSKPKLNWSEAHCSRIHPVLGHPAPLFIPDAKADTGLLGELTLTPAAALCPSPKGFSSQLCRISSVSIFLYGPLGLPLLSSDQDQPSTAVFRDTSYFIDWKKYNLFMVPNLDLNLDTQSVLPDVNYKAESPEGNQSQNMNAQGPALLLFLFVDFQSDVPVQQAKIWGLHTLLTAHLSAILSESRSTVQQSIQSAVDQVWQLYHHDAKTQQRLQASLSVAVNSIMSVLTGSTRSSFRKTCLQALEAADTQEFGVKLHRIFYDITQHQFLKHCSCDTEQHLTPEKNISAQNTKDQHKNIAQEFPEESIGQAENKRPKRGSPNHGREESRVLGSARDRSPPKSATRDRELTEVSLTARGSQTQAAHGRAQAAEAASPAGGLEDLWLQEVSNLSEWLNPGHRS
With B9, the binding entry in assay [7] is listed as “binds”; in [8], “binds”; in [9] it was “binds”; in assay [10] it was “no binding”.

B10: TOPOVIBL W562G, full length (yeast two-hybrid fusion) (protein, UniProt J3QMY9 1-579)
chain: B9 chain with W562G
On to B10, for which, in [9], the binding entry was “no binding”.

B11: TOPOVIBL W562A, full length (yeast two-hybrid fusion) (protein, UniProt J3QMY9 1-579)
chain: B9 chain with W562A
For the molecule B11, the binding result in [9] was “no binding”.

B12: MEI4^1–127 (domain or fragment, UniProt Q8BRM6 1-127)
chain: T2 sequence 2
As to B12, the binding result in [11] was “binds”.
